# Screen size: about 390,000 compounds; about 1,400 (0.36%) were called active. Inconclusive results, whose numbers are uncertain, are shown with a selection of clear calls. Calls follow the shape of the dose curve; as a rule, active = well fitted inhibition curve with a large enough effect; inconclusive = small, poorly fitted or top-dose-only effect; inactive = no such curve, though single readings can be large or run the other way. Potencies of inconclusive entries are doubtful fits and often do not repeat.
# Target: Flap endonuclease 1 (Homo sapiens) (UniProt P39748)
# Experiment: qHTS Assay for the Inhibitors of Human Flap endonuclease 1 (FEN1). Also: nearly all actives have a fitted effect of over 65% in size.
# Conditions: Recombinant FEN1 flap cleavage, fluorescence, 15 min; series mostly up to 114 µM; activity change, negative = inhibition: at the top concentration
# Outline: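 In this screen, 50 nM flap DNA substrate was added to 10 nM FEN1 pretreated with compound for 15 min at room temperature; cleavage was followed with reads at 0 and 15 min, and Hill fitting gave concentration–response parameters.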
# % is scaled to controls: 0 for no effect and ±100 for the full control effect; potency is read from the fitted curve at half-maximal effect; tags tell the direction and shape of the fitted curve.
# UniProt P39748, sequence (P39748 whole entry, looked up): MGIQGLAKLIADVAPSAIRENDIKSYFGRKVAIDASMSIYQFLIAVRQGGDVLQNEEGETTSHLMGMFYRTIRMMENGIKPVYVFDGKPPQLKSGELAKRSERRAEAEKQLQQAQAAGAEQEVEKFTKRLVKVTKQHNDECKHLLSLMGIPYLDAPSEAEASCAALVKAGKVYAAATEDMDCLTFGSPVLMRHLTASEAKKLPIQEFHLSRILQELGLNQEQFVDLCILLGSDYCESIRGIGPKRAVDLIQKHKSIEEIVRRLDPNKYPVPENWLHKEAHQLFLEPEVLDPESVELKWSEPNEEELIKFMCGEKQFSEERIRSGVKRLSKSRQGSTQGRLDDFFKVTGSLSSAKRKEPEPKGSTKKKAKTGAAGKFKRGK
SMILES,"activity change, negative = inhibition",Potency
COc1cc(Cl)c(CC(=O)NO)cc1OC,inactive: -3.04%,
CC(C)c1ccc(Nc2nc(Nc3ccc(Cl)cc3)nc(N3CCOCC3)n2)cc1,inactive: -15.6%,
Cc1ccc(NC(=O)CN2C(=O)S/C(=C/c3ccc(O)c([N+](=O)[O-])c3)C2=O)cc1C,,"inconclusive: 89.1 µM [inhibitor, single point]"
CCOc1ccc(/C=C2/SC(=S)N(CCC(=O)Nc3ccc(C(=O)O)cc3)C2=O)cc1,inactive: -33%,
O=C(CSc1nccn1-c1ccc(F)cc1)Nc1ccc(OC(F)(F)F)cc1,,"inconclusive: 70.8 µM [inhibitor, partial curve, poor fit]"
CCOC(=O)c1c(C)oc2ccc(NS(=O)(=O)c3ccc4c5c(cccc35)C(=O)N4)cc12,,"inconclusive: 89.1 µM [inhibitor, partial curve, poor fit]"
COc1ccc2c(c1)-c1nc(/N=C/c3c(O)ccc4ccccc34)sc1CC2,,"inconclusive: 79.4 µM [inhibitor, partial curve, poor fit]"
N#C/C(=C\c1ccc(-c2cc(Cl)ccc2Cl)o1)C(=O)Nc1cccc2ncccc12,,"inconclusive: 8.44 µM [inhibitor, partial curve, poor fit]"
COc1ccc(OC)c(NC(=O)CSC2=Nc3ccccc3C3=NC(CC(=O)NCc4ccc5c(c4)OCO5)C(=O)N23)c1 (stereo not drawn),,"inconclusive: 89.1 µM [inhibitor, partial curve, poor fit]"
O=S1(=O)C2CC3CCC2(CN1Cc1cccc(F)c1)O3 (stereo not drawn),inactive: -2.6%,
COc1ccc(CNC(=O)Cc2csc(NC(=O)Nc3ccccc3OC)n2)cc1,,"inconclusive: 56.2 µM [inhibitor, partial curve, poor fit]"
O=C(CSC1=NC2(CCCCC2)N=C1c1ccccc1)Nc1ccc2c(c1)OCCO2,,"inconclusive: 11.2 µM [inhibitor, partial curve, poor fit]"
CSc1nc2sccc2c(=O)[nH]1,inactive: -4.17%,
CN(C)CC(C(=O)c1ccccc1)c1ccccc1 (stereo not drawn),inactive: -1.43%,
CCn1c(CSc2nc3ccccc3s2)nnc1SCC(=O)c1ccc(Cl)cc1,inactive: 1.71%,
COc1cc(C2c3c([nH]c(=O)[nH]c3=O)Nc3ccc4ccccc4c32)ccc1O (stereo not drawn),,"inconclusive: 56.2 µM [inhibitor, partial curve, poor fit]"
Cc1ccccc1-n1nc2c(c1NC(=O)c1c(-c3ccccc3Cl)noc1C)CSC2,,"inconclusive: 89.1 µM [inhibitor, single point]"
CCOC(=O)CC(NS(=O)(=O)c1ccc2[nH]c3c(c2c1)CCCC3)c1ccccc1Cl (stereo not drawn),,"inconclusive: 11.2 µM [inhibitor, full curve, poor fit]"
Cc1ccc2cc(C=C(C#N)C#N)c(N3CCCCC3)nc2c1,,"inconclusive: 89.1 µM [inhibitor, single point]"
N#Cc1c(NC(=O)c2ccco2)sc2c1CCC2,,"inconclusive: 50.1 µM [inhibitor, partial curve, poor fit]"
O=S(=O)(NCCSc1ccccc1)c1ccc2c(c1)OCCO2,,"inconclusive: 79.4 µM [inhibitor, partial curve, poor fit]"

SMILES,"activity change, negative = inhibition",Potency
Cc1ccc(C(=O)O)cc1-c1ccc(/C=C2/NC(=O)N(c3ccccc3)C2=O)o1,,"inconclusive: 35.5 µM [inhibitor, partial curve]"
CCN(C(=O)COC(=O)c1ccc([N+](=O)[O-])o1)c1cccc2ccccc12,,active: 28.2 µM
COc1ccc(OC)c(NC(=O)c2noc3c2CCCC3)c1,,"inconclusive: 3.55 µM [inhibitor, partial curve, poor fit]"
c1ccc(CNc2c3ccccc3nc3ccccc23)cc1,,"inconclusive: 15.8 µM [inhibitor, full curve, poor fit]"
COc1ccc(N(C(=O)C2CCCCC2)S(=O)(=O)c2cccc3cccnc23)cc1,,"inconclusive: 50.1 µM [inhibitor, partial curve, poor fit]"
CCc1nnc2c3ccccc3nc(Nc3ccc(C(C)=O)cc3)n12,inactive: -0.435%,
CCOc1ccc(S(=O)(=O)Nc2cc(SCC(=O)O)c(O)c3ccccc23)cc1,,"inconclusive: 8.91 µM [inhibitor, partial curve, poor fit]"
Clc1ccc(Cn2cc(Br)cn2)cc1Cl,inactive: -0.61%,
CC(C)Oc1ccc(C(=O)OCC(=O)NC(=O)NC2CCCC2)cc1,,"inconclusive: 56.2 µM [inhibitor, partial curve, poor fit]"
Cc1ccc(C(=O)/C=C/C(=O)c2ccc(C)cc2)cc1,inactive: -3.21%,
CCOc1ccc(CCNC(=O)c2cn(CC)c3ccc(S(=O)(=O)N4CCc5ccccc5C4)cc3c2=O)cc1OCC,inactive: -24.7%,
N#Cc1c(N2CCCCC2)nc(N)c2c(N)nc3c(c12)CC(c1ccccc1)O3 (stereo not drawn),,"inconclusive: 89.1 µM [inhibitor, partial curve, poor fit]"
CCn1c2ccccc2c2cc(CN3CCN(Cc4ccccc4F)CC3)ccc21,,"inconclusive: 50.1 µM [inhibitor, partial curve]"
O=C(Nc1ccccc1-c1cn2c(CN3CCNCC3)csc2n1)c1cnc2ccccc2n1,,active: 28.2 µM
CS(=O)(=O)C1=NSC2=NC(=O)/C(=C\c3cccn3-c3ccc(Cl)cc3)C(=N)N21,inactive: -18.3%,
CCOc1ccc(NC(=O)NCc2c(-n3cccc3)sc3c2CCCC3)cc1,,"inconclusive: 31.6 µM [inhibitor, partial curve, poor fit]"
Cc1cccc2sc(NNC(=O)c3ccc(S(=O)(=O)N4CC(C)CC(C)C4)cc3)nc12 (stereo not drawn),,"inconclusive: 39.8 µM [inhibitor, partial curve, poor fit]"
Cc1cccc(C)c1OCCn1c(C2CC(=O)N(c3cccc(Cl)c3)C2)nc2ccccc21 (stereo not drawn),,"inconclusive: 89.1 µM [inhibitor, partial curve, poor fit]"
CCN(CC)S(=O)(=O)c1ccc(N/N=C(\C)c2ccc(OC)cc2O)nc1,,"inconclusive: 35.5 µM [inhibitor, partial curve, poor fit]"
O=C(/C=C/c1ccncc1)c1ccc(NC(=O)c2ccccc2F)cc1,,"inconclusive: 50.1 µM [inhibitor, partial curve, poor fit]"
CC(=O)c1cccc(NC(=O)C(C)OC(=O)c2ccc(S(C)(=O)=O)c([N+](=O)[O-])c2)c1 (stereo not drawn),inactive: -22%,

SMILES,"activity change, negative = inhibition",Potency
Cc1cccc(NC(=O)CN2C(=O)C(c3ccc(F)cc3)=NC23CCCCCC3)c1C,inactive: -4.32%,
O=C(CN1CCCC1)N1CCCc2c1c(=O)oc1ccc(OCc3ccccc3)cc21,,"inconclusive: 39.8 µM [inhibitor, single point]"
Brc1ccc(C2Nc3cccc4cccc(c34)N2)o1,,active: 28.2 µM
COC(=O)c1[nH]c2ccc(C)cc2c1NC(=O)CN1CCCC(C)(C)C1,,"inconclusive: 56.2 µM [inhibitor, partial curve, poor fit]"
CC(=O)c1ccc(NC(=S)NC(C)CCc2ccccc2)cc1 (stereo not drawn),,"inconclusive: 50.1 µM [inhibitor, partial curve, poor fit]"
COc1cc(/C=N/Nc2nc3ccccc3s2)cc([N+](=O)[O-])c1O,,active: 44.7 µM
CCOc1cc(/C=N/Nc2nn3cnnc3c3ccccc23)ccc1O,,"inconclusive: 22.4 µM [inhibitor, partial curve, poor fit]"
CCOc1cc(/C=C(\C#N)C(=O)Nc2ccccc2C(=O)O)ccc1OC(=O)c1ccc(C)cc1,,"inconclusive: 89.1 µM [inhibitor, partial curve, poor fit]"
CC1(OC(=O)C2CCCC2)C(=O)C=C2C=C(c3ccsc3)N(CCc3c[nH]c4ccccc34)C=C2C1=O (stereo not drawn),,"inconclusive: 28.2 µM [inhibitor, partial curve, poor fit]"
COc1ccccc1NC(=O)c1cc2cc3ccc(OC)c(Cl)c3nc2s1,,"inconclusive: 56.2 µM [inhibitor, partial curve, poor fit]"
N#Cc1cccn1-c1nccc(-c2cccs2)n1,,"inconclusive: 79.4 µM [inhibitor, partial curve, poor fit]"
COc1ccc2cc3cc(C(=O)NCc4ccco4)oc3nc2c1,,"inconclusive: 56.2 µM [inhibitor, partial curve, poor fit]"
COC(=O)Nc1ccc(S(=O)(=O)N2c3ccccc3CCC2C)cc1 (stereo not drawn),,"inconclusive: 79.4 µM [inhibitor, partial curve, poor fit]"
O=C(C1CCCN(c2ncnc3c2nc2n3CCCCC2)C1)N1CCN(c2ccc(F)cc2)CC1 (stereo not drawn),inactive: -2.83%,
Cc1nnc(NC(=O)c2sc3nc(-c4cccs4)cc(C(F)(F)F)c3c2N)s1,,"inconclusive: 44.7 µM [inhibitor, partial curve]"
O=C(Cc1ccccc1)N[C@@H](Cc1ccccc1)c1nc2ccccc2[nH]1,inactive: 1.85%,
O=C1/C(=C\c2ccc(O)c(O)c2)SC(=S)N1Cc1ccccc1,,"inconclusive: 50.1 µM [inhibitor, partial curve, poor fit]"
COc1ccc(/C(C)=N/NC(=O)CNC(=O)/C=C\c2ccco2)cc1,inactive: 0.5%,
C/C(=N/O)c1ccc2c(c1)OCCOCCOc1cc(/C(C)=N/O)ccc1OCCOCCO2,,"inconclusive: 89.1 µM [inhibitor, partial curve, poor fit]"
O=C(Cn1cc(S(=O)(=O)Cc2ccccc2F)c2ccccc21)Nc1ccc(F)c(Cl)c1,,"inconclusive: 89.1 µM [inhibitor, single point]"
CC(=O)Nc1sc2c(c1-c1nc3ccccc3s1)CCN(C(C)C)C2,,"inconclusive: 8.91 µM [inhibitor, full curve, poor fit]"

# Reference: PubChem BioAssay AID588795 (National Center for Advancing Translational Sciences (NCATS), 2011)
